Experimental data reported in the supplement of paper PMC8728848.
The list shows a part of the results.

Tests used:
Experiment in all cases: glycan array binding signal (z-score within array); higher = stronger binding
Details in all cases: glycan notation: IUPAC condensed, linker removed
[1] = target: Neu5Ac(a2-3)Gal6S(b1-4)[Fuc(a1-3)]GlcNAc
How it was run: (§1)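 Arrays were curated from the Consortium for Functional Glycomics database, 3228 in total, and kept only where the protein sequence was available. Binding is expressed as a within-array Z-score. This score was averaged across arrays of the same protein sequence at different concentrations or buffers and across linkers, and negative values can be read as non-binding.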

Neu5Ac(a2-3)GalNAc = target: Neu5Ac(a2-3)GalNAc
How it was run: as §1

[2] = target: Neu5Ac(a2-3)GalNAc(b1-4)GlcNAc
How it was run: as §1

[3] = target: Neu5Ac(a2-3)[GalNAc(b1-4)]Gal(b1-4)Glc
How it was run: as §1

[4] = target: Neu5Ac(a2-3)[GalNAc(b1-4)]Gal(b1-4)GlcNAc
How it was run: as §1

[5] = target: Neu5Ac(a2-3)[GalNAc(b1-4)]Gal(b1-4)GlcNAc(b1-3)GalNAc
How it was run: as §1

[6] = target: Neu5Ac(a2-3)[Neu5Ac(a2-6)]GalNAc
How it was run: as §1

Neu5Ac(a2-6)Gal = target: Neu5Ac(a2-6)Gal
How it was run: as §1

[7] = target: Neu5Ac(a2-6)Gal(b1-3)GlcNAc(b1-3)[Gal(b1-4)GlcNAc(b1-6)]Gal(b1-4)Glc
How it was run: as §1

Neu5Ac(a2-6)Gal(b1-4)Glc = target: Neu5Ac(a2-6)Gal(b1-4)Glc
How it was run: as §1

[8] = target: Neu5Ac(a2-6)Gal(b1-4)GlcNAc
How it was run: as §1

[9] = target: Neu5Ac(a2-6)Gal(b1-4)GlcNAc(b1-2)Man
How it was run: as §1

[10] = target: Neu5Ac(a2-6)Gal(b1-4)GlcNAc(b1-2)Man(a1-3)Man(b1-4)GlcNAc(b1-4)GlcNAc
How it was run: as §1

[11] = target: Neu5Ac(a2-6)Gal(b1-4)GlcNAc(b1-2)Man(a1-3)[Gal(b1-4)GlcNAc(b1-2)Man(a1-6)]Man(b1-4)GlcNAc(b1-4)GlcNAc
How it was run: as §1

[12] = target: Neu5Ac(a2-6)Gal(b1-4)GlcNAc(b1-2)Man(a1-3)[GlcNAc(b1-2)Man(a1-6)]Man(b1-4)GlcNAc(b1-4)GlcNAc
How it was run: as §1

[13] = target: Neu5Ac(a2-6)Gal(b1-4)GlcNAc(b1-2)Man(a1-3)[GlcNAc(b1-4)][Neu5Ac(a2-6)Gal(b1-4)GlcNAc(b1-2)Man(a1-6)]Man(b1-4)GlcNAc(b1-4)GlcNAc
How it was run: as §1

[14] = target: Neu5Ac(a2-6)Gal(b1-4)GlcNAc(b1-2)Man(a1-3)[Man(a1-6)]Man(b1-4)GlcNAc(b1-4)GlcNAc
How it was run: as §1

[15] = target: Neu5Ac(a2-6)Gal(b1-4)GlcNAc(b1-2)Man(a1-3)[Neu5Ac(a2-3)Gal(b1-4)GlcNAc(b1-2)Man(a1-6)]Man(b1-4)GlcNAc(b1-4)GlcNAc
How it was run: as §1

[16] = target: Neu5Ac(a2-6)Gal(b1-4)GlcNAc(b1-2)Man(a1-3)[Neu5Ac(a2-6)Gal(b1-4)GlcNAc(b1-2)Man(a1-6)]Man(b1-4)GlcNAc(b1-4)GlcNAc
How it was run: as §1

[17] = target: Neu5Ac(a2-6)Gal(b1-4)GlcNAc(b1-2)Man(a1-3)[Neu5Ac(a2-6)Gal(b1-4)GlcNAc(b1-2)Man(a1-6)]Man(b1-4)GlcNAc(b1-4)[Fuc(a1-6)]GlcNAc
How it was run: as §1

[18] = target: Neu5Ac(a2-6)Gal(b1-4)GlcNAc(b1-2)Man(a1-6)Man(b1-4)GlcNAc(b1-4)GlcNAc
How it was run: as §1

[19] = target: Neu5Ac(a2-6)Gal(b1-4)GlcNAc(b1-2)Man(a1-6)[Gal(b1-4)GlcNAc(b1-2)Man(a1-3)]Man(b1-4)GlcNAc(b1-4)GlcNAc
How it was run: as §1

[20] = target: Neu5Ac(a2-6)Gal(b1-4)GlcNAc(b1-2)Man(a1-6)[GlcNAc(b1-2)Man(a1-3)]Man(b1-4)GlcNAc(b1-4)GlcNAc
How it was run: as §1

[21] = target: Neu5Ac(a2-6)Gal(b1-4)GlcNAc(b1-2)Man(a1-6)[Man(a1-3)]Man(b1-4)GlcNAc(b1-4)GlcNAc
How it was run: as §1

[22] = target: Neu5Ac(a2-6)Gal(b1-4)GlcNAc(b1-2)[Neu5Ac(a2-6)Gal(b1-4)GlcNAc(b1-4)]Man(a1-3)[GlcNAc(b1-4)][Neu5Ac(a2-6)Gal(b1-4)GlcNAc(b1-2)[Neu5Ac(a2-6)Gal(b1-4)GlcNAc(b1-6)]Man(a1-6)]Man(b1-4)GlcNAc(b1-4)GlcNAc
How it was run: as §1

[23] = target: Neu5Ac(a2-6)Gal(b1-4)GlcNAc(b1-2)[Neu5Ac(a2-6)Gal(b1-4)GlcNAc(b1-4)]Man(a1-3)[GlcNAc(b1-4)][Neu5Ac(a2-6)Gal(b1-4)GlcNAc(b1-4)Man(a1-6)]Man(b1-4)GlcNAc(b1-4)GlcNAc
How it was run: as §1

[24] = target: Neu5Ac(a2-6)Gal(b1-4)GlcNAc(b1-2)[Neu5Ac(a2-6)Gal(b1-4)GlcNAc(b1-6)]Man(a1-6)[Neu5Ac(a2-6)Gal(b1-4)GlcNAc(b1-2)Man(a1-3)][GlcNAc(b1-4)]Man(b1-4)GlcNAc(b1-4)GlcNAc
How it was run: as §1

[25] = target: Neu5Ac(a2-6)Gal(b1-4)GlcNAc(b1-3)Gal(b1-3)GlcNAc
How it was run: as §1

[26] = target: Neu5Ac(a2-6)Gal(b1-4)GlcNAc(b1-3)Gal(b1-4)GlcNAc
How it was run: as §1

[27] = target: Neu5Ac(a2-6)Gal(b1-4)GlcNAc(b1-3)Gal(b1-4)GlcNAc(b1-2)Man(a1-3)[Neu5Ac(a2-6)Gal(b1-4)GlcNAc(b1-3)Gal(b1-4)GlcNAc(b1-2)Man(a1-6)]GalNAc
How it was run: as §1

[28] = target: Neu5Ac(a2-6)Gal(b1-4)GlcNAc(b1-3)Gal(b1-4)GlcNAc(b1-3)Gal(b1-4)GlcNAc
How it was run: as §1

[29] = target: Neu5Ac(a2-6)Gal(b1-4)GlcNAc(b1-3)Gal(b1-4)GlcNAc(b1-3)Gal(b1-4)GlcNAc(b1-2)Man(a1-3)[Neu5Ac(a2-6)Gal(b1-4)GlcNAc(b1-3)Gal(b1-4)GlcNAc(b1-3)Gal(b1-4)GlcNAc(b1-2)Man(a1-6)]GalNAc
How it was run: as §1

[30] = target: Neu5Ac(a2-6)Gal(b1-4)GlcNAc(b1-3)Gal(b1-4)GlcNAc(b1-3)GalNAc
How it was run: as §1

[31] = target: Neu5Ac(a2-6)Gal(b1-4)GlcNAc(b1-3)Gal(b1-4)GlcNAc(b1-3)[Neu5Ac(a2-6)Gal(b1-4)GlcNAc(b1-3)Gal(b1-4)GlcNAc(b1-6)]GalNAc
How it was run: as §1

[32] = target: Neu5Ac(a2-6)Gal(b1-4)GlcNAc(b1-3)Gal(b1-4)GlcNAc(b1-6)[Gal(b1-3)]GalNAc
How it was run: as §1

[33] = target: Neu5Ac(a2-6)Gal(b1-4)GlcNAc(b1-3)Gal(b1-4)[Fuc(a1-3)]GlcNAc(b1-3)Gal(b1-4)[Fuc(a1-3)]GlcNAc
How it was run: as §1

[34] = target: Neu5Ac(a2-6)Gal(b1-4)GlcNAc(b1-3)GalNAc
How it was run: as §1

[35] = target: Neu5Ac(a2-6)Gal(b1-4)GlcNAc(b1-3)[Neu5Ac(a2-6)Gal(b1-4)GlcNAc(b1-6)]GalNAc
How it was run: as §1

[36] = target: Neu5Ac(a2-6)Gal(b1-4)GlcNAc(b1-6)GalNAc
How it was run: as §1

[37] = target: Neu5Ac(a2-6)Gal(b1-4)GlcNAc(b1-6)[Gal(b1-3)GlcNAc(b1-3)]Gal(b1-4)Glc
How it was run: as §1

[38] = target: Neu5Ac(a2-6)Gal(b1-4)GlcNAc(b1-6)[Gal(b1-3)]GalNAc
How it was run: as §1

[39] = target: Neu5Ac(a2-6)Gal(b1-4)GlcNAc6S
How it was run: as §1

Neu5Ac(a2-6)GalNAc = target: Neu5Ac(a2-6)GalNAc
How it was run: as §1

[40] = target: Neu5Ac(a2-6)GalNAc(b1-4)GlcNAc
How it was run: as §1

[41] = target: Neu5Ac(a2-6)GalNAc(b1-4)GlcNAc6S
How it was run: as §1

B1: LgFlo1 (Saccharomyces pastorianus), B3IUA8 (protein)
chain: SGSTQACLPVGSRKNGMNVNFYKYSLQDSTTYSDPQYMAYKYSDTKKLGSVSGQTHLSIYYGPNTAFWNTASWSSDLFGFYTTPTNVTVEMTGYFLPPQTGSYTFKFATVDDSAILSVGGSIAFECCAQEQPPITSTDFTINGIKPWDAATPTDIKGSTYMYAGYYYPIKIVYSNAKALARLPVSVVLPDGTEVNDDFEGYVYSFDDDLSQSNCTIPDPSKHTTS
- glycan array binding signal (z-score) [1]: -0.151
- glycan array binding signal (z-score) (Neu5Ac(a2-3)GalNAc): -0.219
- glycan array binding signal (z-score) [2]: -0.152
- glycan array binding signal (z-score) [3]: 0.03
- glycan array binding signal (z-score) [4]: -0.152
- glycan array binding signal (z-score) [5]: -0.107
- glycan array binding signal (z-score) [6]: -0.356
- glycan array binding signal (z-score) (Neu5Ac(a2-6)Gal): -0.293
- glycan array binding signal (z-score) [7]: -0.357
- glycan array binding signal (z-score) (Neu5Ac(a2-6)Gal(b1-4)Glc): -0.305
- glycan array binding signal (z-score) [8]: -0.403
- glycan array binding signal (z-score) [9]: -0.331
- glycan array binding signal (z-score) [10]: -0.1
- glycan array binding signal (z-score) [11]: -0.38
- glycan array binding signal (z-score) [12]: -0.371
- glycan array binding signal (z-score) [13]: -0.203
- glycan array binding signal (z-score) [14]: -0.306
- glycan array binding signal (z-score) [15]: -0.257
- glycan array binding signal (z-score) [16]: -0.299
- glycan array binding signal (z-score) [17]: -0.085
- glycan array binding signal (z-score) [18]: -0.119
- glycan array binding signal (z-score) [19]: -0.38
- glycan array binding signal (z-score) [20]: -0.335
- glycan array binding signal (z-score) [21]: -0.037
- glycan array binding signal (z-score) [22]: -0.066
- glycan array binding signal (z-score) [23]: 0.469
- glycan array binding signal (z-score) [24]: -0.153
- glycan array binding signal (z-score) [25]: 0.199
- glycan array binding signal (z-score) [26]: -0.514
- glycan array binding signal (z-score) [27]: -0.499
- glycan array binding signal (z-score) [28]: -0.317
- glycan array binding signal (z-score) [29]: -0.071
- glycan array binding signal (z-score) [30]: -0.418
- glycan array binding signal (z-score) [31]: -0.127
- glycan array binding signal (z-score) [32]: 0.026
- glycan array binding signal (z-score) [33]: -0.167
- glycan array binding signal (z-score) [34]: -0.102
- glycan array binding signal (z-score) [35]: -0.237
- glycan array binding signal (z-score) [36]: -0.267
- glycan array binding signal (z-score) [37]: -0.291
- glycan array binding signal (z-score) [38]: -0.064
- glycan array binding signal (z-score) [39]: -0.226
- glycan array binding signal (z-score) (Neu5Ac(a2-6)GalNAc): -0.312
- glycan array binding signal (z-score) [40]: -0.367
- glycan array binding signal (z-score) [41]: -0.226
